Data taken from PubChem BioAssay AID624296 (National Center for Advancing Translational Sciences (NCATS), 2012).
Hit rate of the full screen: of about 350,000 compounds, about 9,900 (2.8%) were called active. The shares of active, inactive and inconclusive entries below differ from those in the screen. Calls come from the whole dose curve; as a rule, active = well fitted activation curve with a large enough effect; inconclusive = small, poorly fitted or top-dose-only effect; inactive = no such curve, though single readings can be large or run the other way. Potencies of inconclusive entries are left out as doubtful fits.

assay: A quantitative high throughput screen for small molecules that induce DNA re-replication in MCF 10a normal breast cells.; note: nearly all actives have a fitted effect of over 50% in size; settings: MCF 10A DNA re-replication, Hoechst nuclear intensity, 48 h; series mostly up to 46.1 µM
Potency is the fitted concentration of half-maximal effect; tags give direction and shape of the fitted curve.

| Structure (SMILES) | Potency |
| --- | --- |
| O=C(CCNc1cccc(F)c1)c1cc2ccccc2o1 | inconclusive [activator, single point] |
| Cc1cccc(N2CCN(C(=O)CNC(=O)Cc3ccccc3)CC2)c1C | inconclusive [activator, single point] |
| CCN(CC)c1nc(Oc2ccc(C(=O)NN)cc2)nc(Oc2ccc(C(=O)NN)cc2)n1 | inactive |
| COc1cc([N+](=O)[O-])cc(/C=N/NC(=O)c2cc(-c3ccccc3)nc3ccccc23)c1O | inactive |
| Cc1nc(NS(=O)(=O)c2ccc(Br)cc2)c2c3c(sc2n1)CCC3 | inconclusive [activator, single point] |
| CN(CC(=O)Nc1c(Cl)cccc1Cl)C(=O)C1CSC2(C)CCC(=O)N12 (configuration not stated) | inactive |
| Cc1cc(C)c2c(N)c(C(=O)N/N=C/c3cccs3)sc2n1 | active: 18.4 µM |
| CC(C)(C)C1CCc2c(C(=O)NNC(=O)CCCC(=O)O)csc2C1 (configuration not stated) | inconclusive [activator, partial curve, poor fit] |
| COc1ccc(Cl)cc1NC(=O)CN(C)CC(=O)Nc1cc(OC)c(OC)c(OC)c1 | inconclusive [activator, full curve, poor fit] |
| COc1ccc(CN(Cc2cc3cc(C)ccc3[nH]c2=O)C(=O)N(C)C)cc1 | inconclusive [activator, partial curve, poor fit] |
| COc1ccc(OC)c(NC(=O)CCN2CCN(C)CC2)c1 | inactive |
| CCc1nc(Nc2ccccc2F)c2oc3ccccc3c2n1 | inconclusive [activator, single point] |
| O=C1NN=C(c2ccc(Cl)cc2)CC1c1c[nH]c2ccccc12 (configuration not stated) | inconclusive [activator, partial curve] |
| CCOC(=O)C1(CCCc2ccccc2)CCN(C(=O)Cn2nc(C)nc2C)CC1 | inactive |
| CC(C)OC(=O)CSc1nnc(CNc2cccc(Cl)c2)n1C | inconclusive [activator, single point] |
| CCOC(=O)C1(Cc2ccccc2)CCCN(CCO)C1 (configuration not stated) | inconclusive [activator, partial curve, poor fit] |
| COc1ccc(OC)c(/C=C2\S/C(=N/NC(=O)c3ccc4ccccc4c3)NC2=O)c1 | active: 16.4 µM |
| O=C(Nc1cccc(NC(=O)c2cc([N+](=O)[O-])ccc2Cl)n1)c1cc([N+](=O)[O-])ccc1Cl | active: 6.51 µM |
| OCCN1CCN(c2ncnc3ccc(Br)cc23)CC1 | inconclusive [activator, single point] |
| COc1ccccc1NC(=S)N(CCCN1CCOCC1)Cc1cccs1 | inconclusive [activator, single point] |
| CCCOP(=O)(c1ccc(N(C)C)cc1)C(Nc1ccccc1)c1ccc(C)cc1 (configuration not stated) | inconclusive [activator, single point] |

| Structure (SMILES) | Potency |
| --- | --- |
| COc1ccc(/C(C)=N/Nc2nc(C)cc(-c3ccccc3)n2)cc1 | inconclusive [activator, partial curve, poor fit] |
| S=c1[nH]nc(-c2cc(-c3ccccc3)n[nH]2)n1/N=C/C=C/c1ccccc1 | inconclusive [activator, partial curve, poor fit] |
| O=C(CSc1nc2ccccc2[nH]1)N/N=C/C=C\c1ccccc1[N+](=O)[O-] | inconclusive [activator, partial curve, poor fit] |
| CCn1c(SCc2nc(-c3cccs3)no2)nnc1-c1c[nH]c2ccccc12 | inconclusive [activator, partial curve, poor fit] |
| CC1CCCCC1NC(=O)CSC1=Nc2ccccc2C2CC=NN12 (configuration not stated) | inconclusive [activator, single point] |
| CCOc1cc(/C=N/O)ccc1OS(=O)(=O)c1ccc(C)cc1 | inconclusive [activator, full curve, poor fit] |
| CCN(CC(=O)NCc1cccs1)C(=O)/C=C/c1ccc(Cl)c(Cl)c1 | inconclusive [activator, single point] |
| O=C1CCC(=O)c2ccc3c4c(ccc1c24)CC3 | inconclusive [activator, single point] |
| COc1cc(/C=C/C(=O)Nc2ccc(OC)c(S(=O)(=O)N3CCOCC3)c2)ccc1OC(F)F | inconclusive [activator, single point] |
| CCOC(=O)c1csc(Nc2nc3ccc(F)cc3s2)n1 | inconclusive [activator, single point] |
| COc1cc(/C=C(\C#N)C(=O)NC2CCCCC2C)ccc1OS(=O)(=O)c1ccc(C)cc1 (configuration not stated) | active: 18.4 µM |
| CCc1cc(Br)ccc1N1C(=O)C2CC=CCC2C1=O (configuration not stated) | inconclusive [activator, partial curve, poor fit] |
| COc1ccccc1C(=O)Nc1nc(C)cc(C)n1 | inconclusive [activator, full curve, poor fit] |
| COC(=O)c1ccc(S(=O)(=O)c2ccc(C(=O)OC)s2)s1 | inconclusive [activator, single point] |
| Cc1cc(C)cc(NC(=O)C2CCCN2C(=O)Oc2ccccc2)c1 (configuration not stated) | inconclusive [activator, partial curve, poor fit] |
| CCCCCC(=O)N/N=C/c1ccc(N(C)C)cc1 | inconclusive [activator, partial curve, poor fit] |
| COc1ccccc1NC(=S)NC(=O)c1c(-c2ccccc2Cl)noc1C | inactive |
| O=C(C[C@H]1C[C@H](C(=O)N2CCOCC2)[C@@]2(CCC3CCCC3)c3[nH]c4ccc(Cl)cc4c3CCN2C1=O)NCCCn1ccnc1 | inconclusive [activator, single point] |
| C=C1C(CCl)(CCl)C2(Cl)C(Cl)C(Cl)C1(Cl)C2(Cl)Cl (configuration not stated) | inconclusive [activator, partial curve] |
| CC(=O)OCCCNc1cc(Sc2nc3ccccc3s2)c2nonc2c1[N+](=O)[O-] | inconclusive [activator, full curve] |
| Nc1nc(NC(=O)c2cccc(S(=O)(=O)N3CCCCCC3)c2)nc(-c2ccccc2)n1 | inconclusive [activator, single point] |

| Structure (SMILES) | Potency |
| --- | --- |
| Cc1cccc(N2CCN(C(=O)Cc3ccc(Br)cc3)CC2)c1C | inconclusive [activator, single point] |
| O=C(Nc1cccc(NC(=O)c2ccc(Br)cc2)c1)c1ccccc1 | inconclusive [activator, partial curve, poor fit] |
| COc1cccc(NC(=O)c2cc(-c3ccc(OC)cc3OC)nc3ccccc23)c1 | inactive |
| CCn1c(=N)n(CC(O)COc2ccc(C)cc2)c2ccccc21 (configuration not stated) | inactive |
| O=C(NC(=S)Nc1ccc(N2CCCCC2)cc1)c1cccs1 | inconclusive [activator, single point] |
| CN(C)c1ccc(CN(C(=O)c2cc3ccccc3oc2=O)C2CCS(=O)(=O)C2)cc1 (configuration not stated) | inactive |
| C=CCn1c(NC(=O)c2ccc(C)cc2)nc2ccccc21 | inconclusive [activator, partial curve, poor fit] |
| O=C(NC1CCCCC1)C(c1ccc2ncccc2c1)N(Cc1ccccc1)C(=O)c1cccs1 (configuration not stated) | inconclusive [activator, single point] |
| CCCn1c2ccccc2c2cnn(CC(=O)NCCCN3CCN(c4ccccc4)CC3)c(=O)c21 | inconclusive [activator, partial curve, poor fit] |
| Cc1ccc(-c2cc(C(=O)Nc3ccc(S(=O)(=O)Nc4nc(C)cc(C)n4)cc3)c3ccccc3n2)cc1 | inconclusive [activator, partial curve, poor fit] |
| N#CC1=C(N)NC(SCC(=O)Nc2ccc(Br)cc2)=C(C#N)C12CCCCC2 | inconclusive [activator, single point] |
| O=C1N2c3ccccc3CCc3cccc(c32)C1(O)C(F)(F)F (configuration not stated) | inconclusive [activator, single point] |
| CC(OC(=O)C1CCN(c2ccc(C(F)(F)F)cn2)CC1)C(=O)Nc1cccc([N+](=O)[O-])c1 (configuration not stated) | inconclusive [activator, single point] |
| COc1cc(C(=O)NC2CCN(C)CC2)ccc1Nc1ncc2c(n1)N(C1CCCC1)CCC(=O)N2C(C)C | inconclusive [activator, single point] |
| O=C(Nc1ccc(S(=O)(=O)Nc2nccs2)cc1)c1ccc(=O)[nH]c1 | inconclusive [activator, partial curve, poor fit] |
| CC(C)(C)c1nnc(N/N=C/c2ccccc2O)n(N)c1=O | inconclusive [activator, full curve] |
| COc1ccc(C(=O)NCCNc2nc3cc(C)c(C)cc3cc2C)cc1 | inconclusive [activator, single point] |
| CC1(C)CC2CC(C)(CN2C(=O)c2ccc([N+](=O)[O-])cc2[N+](=O)[O-])C1 (configuration not stated) | inconclusive [activator, partial curve, poor fit] |
| CCc1ccc(N2C(=O)CN(Cc3ccc(OC)c(OC)c3)C2=S)cc1 | inconclusive [activator, single point] |
| CCc1ccccc1NC(=O)COC(=O)c1c(C)nsc1NC | inactive |
